Reference: the supplement of paper PMC12217912
This is one part of the list. The full chains were built here from the parent and the listed change. Inactive controls read about 0.05.

B1: TEV protease; numbered along this chain (parent)
chain: MGESLFKGPRDYNPISSSICHLTNESDGHTTSLYGIGFGPFIITNKHLFRRNNGTLVVQSLHGVFKVKDTTTLQQHLVDGRDMIIIRMPKDFPPFPQKLKFREPQREERICLVTTNFQTKSMSSMVSDTSCTFPSGDGIFWKHWIQTKDGQCGSPLVSTRDGFIVGIHSASNFTNTNNYFTSVPKNFMELLTNQEAQQWVSGWRLNADSVLWGGHKVFMVKPEEPFQPVKEATQL

Variants of: B1
Assay: raw area under fraction-flipped curve 0-4 h after induction (AUC4h, not background-subtracted), DNA-recorder readout of cleavage of the substrate (dimensionless); higher = more cleavage of the substrate by the protease variant
Conditions: temperature: 34 °C; time window: 0-4 h after rhamnose induction
Experimental: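 In vivo DNA recorder in E. coli TOP10(DE3) ΔrhaA at 34 °C. Each TEVp single-site mutant (parent TEVp 0) is paired with a single-site variant of the 7-mer TEVs (canonical ENLYFQ|S). The substrate sits between flexible linkers in a Bxb1-sfGFP-TEVs-SsrA fusion, so cleavage stabilises Bxb1 and speeds flipping of a recombination array, read by NGS. The value is the raw area under the fraction-flipped curve over 0-4 h after rhamnose induction (AUC4h), with ≥20 reads per time point. It is not background-subtracted; inactive controls average about 0.047.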
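Further: Bxb1 expression induced with 0.2% (w/v) L-rhamnose at OD600 near 0.5, cultures sampled hourly, flipped fraction per protease–substrate barcode pair counted by paired-end Illumina sequencing.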

For MGESLFKGPRDYNPISSSICHLTNESDGHTTSLYGIGFGPFIITNKHLFRRNNGTLVVQSLHGVFKVKDTTTLQQHLVDGRDMIIIRMPKDFPPFPQKLKFREPQREERICLVTTNFQTKSMSSMVSDTSCTFPSGDGIFMKHWIQTKDGQCGSPLVSTRDGFIVGIHSASNFTNTNNYFTSVPKNFMELLTNQEAQQWVSGWRLNADSVLWGGHKVFMVKPEEPFQPVKEATQL [W141M], the “area with substrate ANLYFQS” value was 0.0667, the “area with substrate CNLYFQS” value was 0.0637 and the “area with substrate DNLYFQS” value was 0.0691. The “area with substrate FNLYFQS” value was 0.0552, the “area with substrate GNLYFQS” value was 0.0478 and the “area with substrate HNLYFQS” value was 0.0283. For the same variant, the “area with substrate INLYFQS” value was 0.0503, the “area with substrate KNLYFQS” value was 0.0633 and the “area with substrate LNLYFQS” value was 0.0518. The “area with substrate NNLYFQS” value was 0.0321, the “area with substrate PNLYFQS” value was 0.0522 and the “area with substrate RNLYFQS” value was 0.0334. The “area with substrate TNLYFQS” value was 0.0604, the “area with substrate VNLYFQS” value was 0.0737 and the “area with substrate WNLYFQS” value was 0.0482. For the same variant, the “area with substrate YNLYFQS” value was 0.042.

In the case of MGESLFKGPRDYNPISSSICHLTNESDGHTTSLYGIGFGPFIITNKHLFRRNNGTLVVQSLHGVFKVKDTTTLQQHLVDGRDMIIIRMPKDFPPFPQKLKFREPQREERICLVTTNFQTKSMSSMVSDTSCTFPSGDGIFWKCWIQTKDGQCGSPLVSTRDGFIVGIHSASNFTNTNNYFTSVPKNFMELLTNQEAQQWVSGWRLNADSVLWGGHKVFMVKPEEPFQPVKEATQL [H143C], the “area with substrate ANLYFQS” value is reported as 0.0674, the “area with substrate CNLYFQS” value is reported as 0.0617 and the “area with substrate DNLYFQS” value is reported as 0.0664. For the same variant, the “area with substrate GNLYFQS” value was 0.0737, the “area with substrate HNLYFQS” value was 0.0681 and the “area with substrate INLYFQS” value was 0.0607. The “area with substrate KNLYFQS” value was 0.0598, the “area with substrate PNLYFQS” value was 0.0588 and the “area with substrate QNLYFQS” value was 0.06. For the same variant, the “area with substrate RNLYFQS” value was 0.0655, the “area with substrate TNLYFQS” value was 0.0574 and the “area with substrate WNLYFQS” value was 0.0677.

In the case of MGESLFKGPRDYNPISSSICHLTNESDGHTTSLYGIGFGPFIITNKHLFRRNNGTLVVQSLHGVFKVKDTTTLQQHLVDGRDMIIIRMPKDFPPFPQKLKFREPQREERICLVTTNFQTKSMSSMVSDTSCTFPSGDGIFWKAWIQTKDGQCGSPLVSTRDGFIVGIHSASNFTNTNNYFTSVPKNFMELLTNQEAQQWVSGWRLNADSVLWGGHKVFMVKPEEPFQPVKEATQL [H143A], the “area with substrate ANLYFQS” value is reported as 0.0741, the “area with substrate CNLYFQS” value is reported as 0.067 and the “area with substrate DNLYFQS” value is reported as 0.0759. The “area with substrate FNLYFQS” value was 0.131, the “area with substrate GNLYFQS” value was 0.0567 and the “area with substrate HNLYFQS” value was 0.0608. For the same variant, the “area with substrate INLYFQS” value was 0.0664, the “area with substrate KNLYFQS” value was 0.0623 and the “area with substrate LNLYFQS” value was 0.0726. The “area with substrate MNLYFQS” value was 0.0667, the “area with substrate NNLYFQS” value was 0.0667 and the “area with substrate PNLYFQS” value was 0.0659. The “area with substrate QNLYFQS” value was 0.0644, the “area with substrate RNLYFQS” value was 0.0827 and the “area with substrate SNLYFQS” value was 0.0596. The “area with substrate TNLYFQS” value was 0.07, the “area with substrate VNLYFQS” value was 0.0625 and the “area with substrate WNLYFQS” value was 0.0487. The “area with substrate YNLYFQS” value was 0.0611.

With MGESLFKGPRDYNPISSSICHLTNESDGHTTSLYGIGFGPFIITNKHLFRRNNGTLVVQSLHGVFKVKDTTTLQQHLVDGRDMIIIRMPKDFPPFPQKLKFREPQREERICLVTTNFQTKSMSSMVSDTSCTFPSGDGIFWKPWIQTKDGQCGSPLVSTRDGFIVGIHSASNFTNTNNYFTSVPKNFMELLTNQEAQQWVSGWRLNADSVLWGGHKVFMVKPEEPFQPVKEATQL [H143P] the “area with substrate ANLYFQS” value was 0.0496, the “area with substrate CNLYFQS” value was 0.0483 and the “area with substrate DNLYFQS” value was 0.0523. The “area with substrate HNLYFQS” value was 0.0495, the “area with substrate INLYFQS” value was 0.0539 and the “area with substrate KNLYFQS” value was 0.0597. The “area with substrate LNLYFQS” value was 0.0604, the “area with substrate MNLYFQS” value was 0.059 and the “area with substrate NNLYFQS” value was 0.0515. For the same variant, the “area with substrate PNLYFQS” value was 0.0505, the “area with substrate SNLYFQS” value was 0.061 and the “area with substrate TNLYFQS” value was 0.0507. The “area with substrate WNLYFQS” value was 0.0486 and the “area with substrate YNLYFQS” value was 0.0574.

For MGESLFKGPRDYNPISSSICHLTNESDGHTTSLYGIGFGPFIITNKHLFRRNNGTLVVQSLHGVFKVKDTTTLQQHLVDGRDMIIIRMPKDFPPFPQKLKFREPQREERICLVTTNFQTKSMSSMVSDTSCTFPSGDGIKWKHWIQTKDGQCGSPLVSTRDGFIVGIHSASNFTNTNNYFTSVPKNFMELLTNQEAQQWVSGWRLNADSVLWGGHKVFMVKPEEPFQPVKEATQL [F140K], the “area with substrate ANLYFQS” value was 0.0496, the “area with substrate CNLYFQS” value was 0.0548 and the “area with substrate DNLYFQS” value was 0.0663. The “area with substrate LNLYFQS” value was 0.064, the “area with substrate NNLYFQS” value was 0.0627 and the “area with substrate PNLYFQS” value was 0.0677. For the same variant, the “area with substrate SNLYFQS” value was 0.0717, the “area with substrate TNLYFQS” value was 0.0653 and the “area with substrate VNLYFQS” value was 0.0897.

For MGESLFKGPRDYNPISSSICHLTNESDGHTTSLYGIGFGPFIITNKHLFRRNNGTLVVQSLHGVFKVKDTTTLQQHLVDGRDMIIIRMPKDFPPFPQKLKFREPQREERICLVTTNFQTKSMSSMVSDTSCTFPSGDGIFWSHWIQTKDGQCGSPLVSTRDGFIVGIHSASNFTNTNNYFTSVPKNFMELLTNQEAQQWVSGWRLNADSVLWGGHKVFMVKPEEPFQPVKEATQL [K142S], the “area with substrate ANLYFQS” value was 0.0614, the “area with substrate CNLYFQS” value was 0.0719 and the “area with substrate DNLYFQS” value was 0.0808. The “area with substrate FNLYFQS” value was 0.0678, the “area with substrate GNLYFQS” value was 0.0665 and the “area with substrate HNLYFQS” value was 0.0624. For the same variant, the “area with substrate INLYFQS” value was 0.0737, the “area with substrate KNLYFQS” value was 0.078 and the “area with substrate LNLYFQS” value was 0.0598. The “area with substrate MNLYFQS” value was 0.0593, the “area with substrate NNLYFQS” value was 0.0518 and the “area with substrate PNLYFQS” value was 0.0777. The “area with substrate SNLYFQS” value was 0.0748, the “area with substrate TNLYFQS” value was 0.0629 and the “area with substrate VNLYFQS” value was 0.064. The “area with substrate WNLYFQS” value was 0.0587 and the “area with substrate YNLYFQS” value was 0.0886.

For MGESLFKGPRDYNPISSSICHLTNESDGHTTSLYGIGFGPFIITNKHLFRRNNGTLVVQSLHGVFKVKDTTTLQQHLVDGRDMIIIRMPKDFPPFPQKLKFREPQREERICLVTTNFQTKSMSSMVSDTSCTFPSGDGIFWFHWIQTKDGQCGSPLVSTRDGFIVGIHSASNFTNTNNYFTSVPKNFMELLTNQEAQQWVSGWRLNADSVLWGGHKVFMVKPEEPFQPVKEATQL [K142F], the “area with substrate ANLYFQS” value was 0.073, the “area with substrate CNLYFQS” value was 0.0666 and the “area with substrate DNLYFQS” value was 0.0753. The “area with substrate GNLYFQS” value was 0.0847, the “area with substrate HNLYFQS” value was 0.0591 and the “area with substrate INLYFQS” value was 0.043. The “area with substrate LNLYFQS” value was 0.069, the “area with substrate MNLYFQS” value was 0.079 and the “area with substrate NNLYFQS” value was 0.0637. The “area with substrate PNLYFQS” value was 0.0796, the “area with substrate TNLYFQS” value was 0.0591 and the “area with substrate VNLYFQS” value was 0.0605. The “area with substrate WNLYFQS” value was 0.0608 and the “area with substrate YNLYFQS” value was 0.0585.

For MGESLFKGPRDYNPISSSICHLTNESDGHTTSLYGIGFGPFIITNKHLFRRNNGTLVVQSLHGVFKVKDTTTLQQHLVDGRDMIIIRMPKDFPPFPQKLKFREPQREERICLVTTNFQTKSMSSMVSDTSCTFPSGDGIFWTHWIQTKDGQCGSPLVSTRDGFIVGIHSASNFTNTNNYFTSVPKNFMELLTNQEAQQWVSGWRLNADSVLWGGHKVFMVKPEEPFQPVKEATQL [K142T], the “area with substrate ANLYFQS” value was 0.0911, the “area with substrate CNLYFQS” value was 0.0454 and the “area with substrate DNLYFQS” value was 0.0823. For the same variant, the “area with substrate FNLYFQS” value was 0.0652, the “area with substrate GNLYFQS” value was 0.0428 and the “area with substrate HNLYFQS” value was 0.0705. For the same variant, the “area with substrate INLYFQS” value was 0.0692, the “area with substrate KNLYFQS” value was 0.0571 and the “area with substrate LNLYFQS” value was 0.068. The “area with substrate MNLYFQS” value was 0.0678, the “area with substrate SNLYFQS” value was 0.0732 and the “area with substrate VNLYFQS” value was 0.0673. The “area with substrate WNLYFQS” value was 0.0593 and the “area with substrate YNLYFQS” value was 0.0638.

In the case of MGESLFKGPRDYNPISSSICHLTNESDGHTTSLYGIGFGPFIITNKHLFRRNNGTLVVQSLHGVFKVKDTTTLQQHLVDGRDMIIIRMPKDFPPFPQKLKFREPQREERICLVTTNFQTKSMSSMVSDTSCTFPSGDGIFWEHWIQTKDGQCGSPLVSTRDGFIVGIHSASNFTNTNNYFTSVPKNFMELLTNQEAQQWVSGWRLNADSVLWGGHKVFMVKPEEPFQPVKEATQL [K142E], the “area with substrate ANLYFQS” value is reported as 0.0357, the “area with substrate CNLYFQS” value is reported as 0.0599 and the “area with substrate DNLYFQS” value is reported as 0.0693. For the same variant, the “area with substrate FNLYFQS” value was 0.0649, the “area with substrate GNLYFQS” value was 0.115 and the “area with substrate HNLYFQS” value was 0.061. For the same variant, the “area with substrate KNLYFQS” value was 0.0821, the “area with substrate LNLYFQS” value was 0.068 and the “area with substrate NNLYFQS” value was 0.071. The “area with substrate PNLYFQS” value was 0.0679, the “area with substrate SNLYFQS” value was 0.0713 and the “area with substrate TNLYFQS” value was 0.0621. The “area with substrate WNLYFQS” value was 0.0639 and the “area with substrate YNLYFQS” value was 0.0705.
